Data: the supplement of paper PMC10126150
Values marked as one replicate rest on one cluster of the flow cell; about a third of the high ones do not repeat.

System: ATP
Assay: switch fluorescence ratio, 500 uM ATP over buffer (Cy3 cluster intensity, sum of 5 cycles each) (fold (ratio)); higher = stronger signal-on switching upon ATP binding; sequences stand for … in TCGTCGGCAGCGTCAGATGTGTATAAGAGACAGTTTTTTTTTTTTTTTTTTTTTTTTT…TC
Details: aptamer strand: ATP DNA aptamer (quencher-CACCTGGGGGAGTATTGCGGAGGAAGG + anchor), 100 nM annealed; ATP concentration: 500 uM; one replicate
Procedure, shortened: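 Switching-strand clusters labelled with Cy3 on a modified Illumina MiSeq flow-cell were annealed to 100 nM quencher-labelled ATP aptamer, imaged in selection buffer, and re-imaged after 15 min with 500 uM ATP at 22 °C. This was done over five cycles with NaOH stripping and re-annealing in between. The fluorescence ratio is summed target-cycle over summed buffer-cycle Cy3 intensity per cluster, averaged per switch-domain sequence, excluding clusters outside 100-1000 RFU.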
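Also: ATP exposure 15 min at 22 °C before imaging.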

Sequence | switch fluorescence ratio
TACCAGTTAT | 0.963
TATTCCCATT | 1.01
CTTATATATT | 1.03
TAGTTAGTGG | 0.976
AACTAACCCG | 1.1
CGCATCGATT | 1.04
TAGAGAGGTG | 1.07
AGCGCTCTGC | 0.965
CGTAGCAGGA | 1.63
GTTTAGGTA | 1.39
ACCAATCAGA | 1.02
GCCAGATGCA | 1.02
AGATGCCTTT | 1.01
AGGTCAGCGT | 1.02
TTCGGGATGG | 0.962
CATGGGATCG | 1.05
CGCTGGGTTG | 1.03
ATGACTTGCA | 1.06
TCAACCCTGG | 1.06
CGATTCTTCT | 0.996
TCATAACCAT | 0.97
AAGTATATCT | 1
CGCGCGAGAT | 0.992
GACTTTCGTA | 1.03
CTCGGTATCT | 0.996

Sequence | switch fluorescence ratio
GGCGTCATGG | 1.02
GACGGATGGG | 1.01
ACCGTGAGAT | 1.01
CACGTGCCCT | 1.04
ACTCTTTCGT | 1.03
CGGAGATTT | 0.97
TTTTGCTACG | 1.04
TGGCGCAGGT | 1.03
GAGTTCGTGT | 0.98
AAGCATAGGC | 1.12
ACAGTGCTGT | 1.07
CTAGGTCCCG | 0.997
CGACGACGTC | 1.05
TCAAGGTGGT | 1.03
CTACTATACC | 1.4
AACCCGGTTT | 1.11
GTTGATAGTG | 1.01
TACAAGGTAT | 0.979
CGCCTCATTC | 1.29
CGAGAGAGCA | 1.03
AGGGACGCGG | 0.992
AACGATAGAT | 1.08
CTGTGTGTAT | 0.98
AATGCAGTG | 1.03
GGAATGATTT | 0.991

Sequence | switch fluorescence ratio
ACGCAGGGTG | 1.14
ATGATTTGTT | 1.02
ATCTCATCCG | 1.11
CCCAGAGCAG | 2.64
TTAATCGGTG | 1.01
ATACGCCAAC | 1.76
GTGTAGTAGC | 1.03
GGGCTTAACT | 1.05
GGAACTTGAT | 1.02
GCCCACTCCT | 1.02
AACTCTCGAC | 1.05
TTTAGGGTCT | 0.986
ACAATCGAT | 0.948
TCGGAGGACC | 1.04
CCATATGTGT | 0.982
CCTATTAGTC | 0.984
GTGCTGGCTG | 1
CTCGGTGTAG | 1.01
AAGGAGTTAG | 1.02
AGCTAATGGC | 1.03
GGGGCGAGCG | 0.982
TTCCCTGATT | 1
AAGTTTCTGC | 0.957
ACCCTGTAGA | 0.986
GTATATATGT | 1

Sequence | switch fluorescence ratio
AGGGGGGTA | 0.998
CGGTGTCAAG | 0.989
AGATTCGCAT | 1.1
GTGTAATTCG | 0.982
AAATGTGAGA | 0.991
ATCGGTTTCC | 1.01
GGACTCCTTC | 1.06
GCACAGTTGC | 1
CTTGATACGT | 1.02
AAAAGGCAAT | 1.16
AAAGGAGCGG | 1
CGGTTAAGTA | 0.984
GCTAGTAGTT | 0.968
GTCAGGCATC | 0.975
TGTGCCAAGA | 0.988
GTGTACGGTT | 0.945
TCGAACGT | 1
AGGGCTGGT | 0.973
GGGTACCGGT | 0.997
CTGAACTCGC | 1.48
CGTGCGACTT | 1.02
GAGGAGGTCA | 0.95
ATAGTTTAGC | 0.989
TGCTTCGTTC | 1.07
TTAGATAGAG | 0.998

Sequence | switch fluorescence ratio
CTCGGTGGCC | 0.992
AGAGTAGACT | 1.05
TTCGGCCTGG | 0.987
CCAACAGGGC | 1.5
TATGCATTCG | 0.96
CAATAATGAG | 1.02
TAGTTGAGTC | 1
CAACGGCTGC | 1.09
TCCTTGGGAA | 0.999
GACGTAATTT | 1.28
CATCACGGTG | 1.2
GGTAGTTGCA | 0.962
CCTAACTTAT | 1.01
TACAGGACT | 1.1
TTATTAAGA | 1.03
CCGGATATAA | 1.17
AGTGGTATAT | 1.01
GCGTTACGAA | 1.02
TCAAGGTGCA | 1
CTTGCTTTAA | 1.04
CGGTTTGGTT | 0.973
GAATTTTTCA | 0.959
GCTATTAGTA | 0.986
ACGGGGCAGC | 1.03
CGTGGACATG | 0.861

Sequence | switch fluorescence ratio
AAGGAGTCA | 1.03
CGGAAGCCTG | 1.04
TCCTTCCTAG | 2.01
TGCGCTGTAC | 3.34
GTGATAAACT | 1.03
GCTAGCACGT | 1.02
GCGATACCCG | 1.31
GTTTCGGCGA | 0.99
GTTCATTGGC | 1.04
GAATTCGACA | 0.999
GTTTGTTATT | 1.01
CAATTGACGG | 1.03
GTATCATGTT | 0.968
TTGTGGCTGC | 1.03
ATAGTACAAC | 1
ATATGTTACG | 1.06
CTTGAATAAC | 1.01
ACCATAGCGG | 1.03
ACCACAGATT | 1.02
CGGCCCTTTC | 1.13
GGCTAGAGGT | 0.983
CGGTACCTAT | 0.99
AATTGGCTTT | 0.995
GCGGTGTTCC | 1.08
AACTTCAAGA | 1.02

Sequence | switch fluorescence ratio
ACAGAAATAC | 4.48
TTTGGCTTCC | 2.27
GATATTTTG | 0.955
CTGTTTTTCT | 0.95
TTCCTAGGTG | 5.91
TCTGTGACGG | 1
AAAACATTGG | 1.04
GCTCTAACA | 1.02
GTTGCGTTAG | 0.982
CCTTAGTGAT | 1.32
AGGGGAGCAG | 0.983
ACGCGACTCT | 1.23
TAACTCGGTG | 1.04
TGCTAAGTCG | 0.906
GGGTGGAACT | 1.03
TCTTTCACCC | 1.05
CAGCAACCGC | 1.1
TCGGGAGATC | 0.981
TCCTTGGTTA | 1.04
AAATTATGTT | 1
ATAATTACT | 1.03
AACCAGGATG | 1.24
TCTGTCATCG | 1.06
CTCTAGACGG | 1.03
TGCGGAATTT | 1.04

Sequence | switch fluorescence ratio
CTCGCCGGCG | 1
TTTGTGTTCC | 1.08
GCCCCCTCAG | 3.55
GCGGGGCGAG | 1.33
GAAAAGCGTT | 1.09
TATCCGTCCG | 1.05
GGGAGCAGGC | 1.09
GCGAACAATT | 1.01
TACGGACACT | 1.3
AGGAAAGAGC | 1.02
CGATTGGGG | 0.998
TTTCCCGTGT | 3.92
CTGGGGGCGT | 1.02
CCAAACAAGA | 1.03
GAAGAAAACG | 0.891
AAGCAGGCCT | 0.948
CAACCTCTGG | 1.02
CTATCATCCG | 1.12
ACAGAACGCT | 1.08
GTGATTGCGA | 0.969
TTTCCTTTCT | 0.939
GGTTCCCTTT | 0.963
TATTAGGTCA | 1.01
TAACTTGTTC | 0.996
GCTGCTAAAG | 0.979
